Some of the results follow.
Target: T1, MBP-FoxP1dN (Mus musculus, UniProt P58462 326-579)
T1 sequence: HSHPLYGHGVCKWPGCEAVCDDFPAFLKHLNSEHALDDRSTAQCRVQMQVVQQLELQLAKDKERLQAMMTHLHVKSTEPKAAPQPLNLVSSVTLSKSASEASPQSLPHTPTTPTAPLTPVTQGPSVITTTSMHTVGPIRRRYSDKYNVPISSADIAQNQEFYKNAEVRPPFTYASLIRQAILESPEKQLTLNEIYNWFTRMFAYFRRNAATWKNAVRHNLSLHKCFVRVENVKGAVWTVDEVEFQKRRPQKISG
Test: PD-seq (MBP pull-down with sequencing); 20 mM Tris-HCl pH 7.5, 100 mM NaCl, 1.5 mM MgCl2, 0.4 uM protein, 0.1 uM dsDNA library, 30 min, room temperature, amylose pull-down; high values mean tight binding
Settings: protein: recombinant; tags: His6-MBP; chain copies: 2; dsDNA, one strand shown
Procedure, shortened: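 Binding is the reads-per-million enrichment of pull-down relative to input, pooled across replicates. For this, 0.4 µM His6-MBP-tagged mouse FoxP3 or FoxP1 fragment lacking the N-terminus, made in E. coli, was incubated with 0.1 µM Klenow-filled double-stranded degenerate DNA library for 30 min at room temperature in Tris pH 7.5 buffer with NaCl and MgCl2. Complexes bound to amylose resin were washed three times before proteinase K released the DNA for PCR barcoding and Illumina sequencing.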

Sequence	binding signal
GATGATTGTTCTCCCAGCTGATGAATTTTTTAATTCGAGTAAACAAATTTTCCTAATCTTTCTGTTCAAGCGCCATCTAC	1.05 RPM ratio (pull-down/input)
GATGATTGTTCTCCCAGCTGATGAATTAGACTCCTCGAGTAAACAAATTTTCCTAATCTTTCTGTTCAAGCGCCATCTAC	0.814 RPM ratio (pull-down/input)
GATGATTGTTCTCCCAGCTGATGAATTCCTAGCATCGAGTAAACAAATTTTCCTAATCTTTCTGTTCAAGCGCCATCTAC	0.919 RPM ratio (pull-down/input)
GATGATTGTTCTCCCAGCTGATGAATTATTACTCTCGAGTAAACAAATTTTCCTAATCTTTCTGTTCAAGCGCCATCTAC	1 RPM ratio (pull-down/input)
GATGATTGTTCTCCCAGCTGATGAATTCGACCCGTCGAGTAAACAAATTTTCCTAATCTTTCTGTTCAAGCGCCATCTAC	0.743 RPM ratio (pull-down/input)
GATGATTGTTCTCCCAGCTGATGAATTCTGAACCTCGAGTAAACAAATTTTCCTAATCTTTCTGTTCAAGCGCCATCTAC	0.722 RPM ratio (pull-down/input)
GATGATTGTTCTCCCAGCTGATGAATTAAGAACCTCGAGTAAACAAATTTTCCTAATCTTTCTGTTCAAGCGCCATCTAC	0.767 RPM ratio (pull-down/input)
GATGATTGTTCTCCCAGCTGATGAATTGCCGGTCTCGAGTAAACAAATTTTCCTAATCTTTCTGTTCAAGCGCCATCTAC	0.824 RPM ratio (pull-down/input)
GATGATTGTTCTCCCAGCTGATGAATTCTGTTATTCGAGTAAACAAATTTTCCTAATCTTTCTGTTCAAGCGCCATCTAC	1.78 RPM ratio (pull-down/input)
GATGATTGTTCTCCCAGCTGATGAATTAGGTGTCTCGAGTAAACAAATTTTCCTAATCTTTCTGTTCAAGCGCCATCTAC	0.877 RPM ratio (pull-down/input)
GATGATTGTTCTCCCAGCTGATGAATTTCAAACTTCGAGTAAACAAATTTTCCTAATCTTTCTGTTCAAGCGCCATCTAC	0.896 RPM ratio (pull-down/input)
GATGATTGTTCTCCCAGCTGATGAATTATTGTTGTCGAGTAAACAAATTTTCCTAATCTTTCTGTTCAAGCGCCATCTAC	3.22 RPM ratio (pull-down/input)
GATGATTGTTCTCCCAGCTGATGAATTCACCCGCTCGAGTAAACAAATTTTCCTAATCTTTCTGTTCAAGCGCCATCTAC	0.851 RPM ratio (pull-down/input)
GATGATTGTTCTCCCAGCTGATGAATTGAGAAGTTCGAGTAAACAAATTTTCCTAATCTTTCTGTTCAAGCGCCATCTAC	0.799 RPM ratio (pull-down/input)
GATGATTGTTCTCCCAGCTGATGAATTTCTATGTTCGAGTAAACAAATTTTCCTAATCTTTCTGTTCAAGCGCCATCTAC	1.05 RPM ratio (pull-down/input)
GATGATTGTTCTCCCAGCTGATGAATTCATAGTCTCGAGTAAACAAATTTTCCTAATCTTTCTGTTCAAGCGCCATCTAC	0.82 RPM ratio (pull-down/input)
GATGATTGTTCTCCCAGCTGATGAATTGCCTGGTTCGAGTAAACAAATTTTCCTAATCTTTCTGTTCAAGCGCCATCTAC	0.956 RPM ratio (pull-down/input)
GATGATTGTTCTCCCAGCTGATGAATTTGAGTCATCGAGTAAACAAATTTTCCTAATCTTTCTGTTCAAGCGCCATCTAC	0.999 RPM ratio (pull-down/input)
GATGATTGTTCTCCCAGCTGATGAATTGAATAACTCGAGTAAACAAATTTTCCTAATCTTTCTGTTCAAGCGCCATCTAC	0.899 RPM ratio (pull-down/input)
GATGATTGTTCTCCCAGCTGATGAATTATACAGCTCGAGTAAACAAATTTTCCTAATCTTTCTGTTCAAGCGCCATCTAC	1.03 RPM ratio (pull-down/input)

Sequence	binding signal
GATGATTGTTCTCCCAGCTGATGAATTAAGGTGCTCGAGTAAACAAATTTTCCTAATCTTTCTGTTCAAGCGCCATCTAC	0.849 RPM ratio (pull-down/input)
GATGATTGTTCTCCCAGCTGATGAATTTTAAGATTCGAGTAAACAAATTTTCCTAATCTTTCTGTTCAAGCGCCATCTAC	0.874 RPM ratio (pull-down/input)
GATGATTGTTCTCCCAGCTGATGAATTCGTGTTATCGAGTAAACAAATTTTCCTAATCTTTCTGTTCAAGCGCCATCTAC	1.64 RPM ratio (pull-down/input)
GATGATTGTTCTCCCAGCTGATGAATTACTAATCTCGAGTAAACAAATTTTCCTAATCTTTCTGTTCAAGCGCCATCTAC	1.17 RPM ratio (pull-down/input)
GATGATTGTTCTCCCAGCTGATGAATTTGGCGCCTCGAGTAAACAAATTTTCCTAATCTTTCTGTTCAAGCGCCATCTAC	0.916 RPM ratio (pull-down/input)
GATGATTGTTCTCCCAGCTGATGAATTGCTAGACTCGAGTAAACAAATTTTCCTAATCTTTCTGTTCAAGCGCCATCTAC	0.967 RPM ratio (pull-down/input)
GATGATTGTTCTCCCAGCTGATGAATTATGACTATCGAGTAAACAAATTTTCCTAATCTTTCTGTTCAAGCGCCATCTAC	1.07 RPM ratio (pull-down/input)
GATGATTGTTCTCCCAGCTGATGAATTAACGCTTTCGAGTAAACAAATTTTCCTAATCTTTCTGTTCAAGCGCCATCTAC	1.04 RPM ratio (pull-down/input)
GATGATTGTTCTCCCAGCTGATGAATTTGAGTTCTCGAGTAAACAAATTTTCCTAATCTTTCTGTTCAAGCGCCATCTAC	0.776 RPM ratio (pull-down/input)
GATGATTGTTCTCCCAGCTGATGAATTATCAGCCTCGAGTAAACAAATTTTCCTAATCTTTCTGTTCAAGCGCCATCTAC	0.932 RPM ratio (pull-down/input)
GATGATTGTTCTCCCAGCTGATGAATTTGGGTGGTCGAGTAAACAAATTTTCCTAATCTTTCTGTTCAAGCGCCATCTAC	0.809 RPM ratio (pull-down/input)
GATGATTGTTCTCCCAGCTGATGAATTCAGAACCTCGAGTAAACAAATTTTCCTAATCTTTCTGTTCAAGCGCCATCTAC	0.767 RPM ratio (pull-down/input)
GATGATTGTTCTCCCAGCTGATGAATTGTAGTACTCGAGTAAACAAATTTTCCTAATCTTTCTGTTCAAGCGCCATCTAC	1.11 RPM ratio (pull-down/input)
GATGATTGTTCTCCCAGCTGATGAATTGACATCGTCGAGTAAACAAATTTTCCTAATCTTTCTGTTCAAGCGCCATCTAC	1.21 RPM ratio (pull-down/input)
GATGATTGTTCTCCCAGCTGATGAATTAGTTTTTTCGAGTAAACAAATTTTCCTAATCTTTCTGTTCAAGCGCCATCTAC	1.19 RPM ratio (pull-down/input)
GATGATTGTTCTCCCAGCTGATGAATTAACACGGTCGAGTAAACAAATTTTCCTAATCTTTCTGTTCAAGCGCCATCTAC	0.913 RPM ratio (pull-down/input)
GATGATTGTTCTCCCAGCTGATGAATTGGTCTGTTCGAGTAAACAAATTTTCCTAATCTTTCTGTTCAAGCGCCATCTAC	0.824 RPM ratio (pull-down/input)
GATGATTGTTCTCCCAGCTGATGAATTATGTTGCTCGAGTAAACAAATTTTCCTAATCTTTCTGTTCAAGCGCCATCTAC	1.59 RPM ratio (pull-down/input)
GATGATTGTTCTCCCAGCTGATGAATTAGAATTGTCGAGTAAACAAATTTTCCTAATCTTTCTGTTCAAGCGCCATCTAC	0.977 RPM ratio (pull-down/input)
GATGATTGTTCTCCCAGCTGATGAATTCGGCAGTTCGAGTAAACAAATTTTCCTAATCTTTCTGTTCAAGCGCCATCTAC	0.783 RPM ratio (pull-down/input)

Reference: publication PMC12820563, “FoxP3 forms a head-to-head dimer in vivo and stabilizes its multimerization on adjacent microsatellites”
